Laboratory results reported in the supplement of paper PMC11417369.
± gives the standard deviation of the averaged measurements. Some of the results follow.

Test system: PfAP2-I AP2 domain 3 (GST-tagged)
Assay: gcPBM binding intensity (ln(normalized median fluorescence intensity)); higher = stronger DNA binding
Method in brief: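 The binding buffer was 1× PBS containing 1% milk, 0.2 mg/ml BSA, 0.5% salmon testes DNA and 0.03% Triton X-100. In it, GST-tagged P. falciparum DNA-binding domains expressed in E. coli were applied for 1 h to an Agilent 4 × 180k array of primer-extended double-stranded 36-bp intergenic genomic probes plus negative controls. Binding intensity, read with Alexa488 anti-GST antibody and a 488 nm scan, is the highest Masliner-normalised natural-log median intensity across replicate spots of either probe orientation.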

| Sequence | gcPBM binding intensity (ln) |
| --- | --- |
| ACATCAAGAATTATTAAGAATACGGATAGATAAAAT [GTGCAC_negctrl_site261] | 7.67 ± 0.75 |
| TAAATGCACATATACACACACCCAATTTTAAGTTTT [CACACA_site7428] | 9.31 ± 0.3 |
| TATTCTCTCTTATGAACACACATTTTTATTTTCAAA [CACACA_site7554] | 7.88 ± 0.45 |
| TAAAAATATATATGATTGCACTTAGGACAATATATA | 8.64 ± 0.092 |
| GGAAACAAAAAATATATACACACTAATCATAAAAAA [CACACA_site7890] | 7.76 ± 0.65 |
| ATTAATATATTATCATGTACACAAAAATAATTTTAT [XGTACX_site7257] | 8.01 ± 0.23 |
| AAGAAAAATATATAAATAAATAAATATATAAATATA [CACACA_negctrl_site836] | 7.23 ± 0.2 |
| TAGACAAAATATAATGCACACTATTATTTTTATTTA [CACACA_site5508] | 11 ± 0.73 |
| TATTTTAATATGTATACATGCATACCTACTCATACA [TGCATGCA_site779] | 7.91 ± 0.7 |
| AACTTGTATTTATACACACACACACTGTCTTTTTTT [CACACA_site7009] | 8.04 ± 0.8 |
| TAAAATTTTATAAAGGAACACACATTTTTTTTTTTT [CACACA_site8740] | 7.47 ± 0.54 |
| AATTTAAAAATGGACACACACAAAAAATAATACTTA [CACACA_site250] | 7.75 ± 0.48 |
| AAAAAAGTTGTATTTGCACACATAAAAAAAAGATAT [CACACA_site3839] | 9.85 ± 0.37 |
| TTATAAATAAAAAATACACACATATATATATATATA [CACACA_site207] | 9.34 ± 0.28 |
| AAAAATTAACAAAAGGTGCAATTTATTTATTAACGG | 10.3 ± 0.5 |
| GTATATTATATTGGGTGTACCATATATAATATAATC [XGTACX_site8579] | 7.79 ± 0.34 |
| GGAAAAGGTATCCGTTCACACATAAATGGATACCAT [CACACA_site5072] | 7.27 ± 0.71 |
| AAAAAAAAAAAAATGTGTACATACATATATTTATAT [XGTACX_site3076] | 7.895 ± 0.078 |
| TATATATATGTATATGTGCACAGTTTTCTTATTAAA [GTGCAC_site9990] | 9.86 ± 0.16 |
| TGGGCACCCATATACACACACAAATACAATGATAAA [CACACA_site4762] | 7.78 ± 0.28 |
| AATATATTATATATATGTACATATGTGTATACATTT [XGTACX_site937] | 7.92 ± 0.5 |
| TTTTATTTATTTTATTGTACATATATAAAACTATGA [XGTACX_site3476] | 7.96 ± 0.38 |
| TCTATATAGATTTGCACACATAAAAATGCTTATATA [CACACA_site2389] | 9.06 ± 0.11 |

| Sequence | gcPBM binding intensity (ln) |
| --- | --- |
| ATTACATATTGATAAGTGCAAGTGTGAGAAATGTTA | 8.74 ± 0.43 |
| CAATCAAATGGACACACACACACCTAAACATAAAAG [CACACA_site5524] | 8.04 ± 0.4 |
| CTTTTTTTTTTAAATTGTACAAATGTGATGTAATAG [XGTACX_site3219] | 8.04 ± 0.18 |
| ATTAAAAAATTACAAGCATGCTTGTTAAAATTTTTT [TGCATGCA_site941] | 7.42 ± 0.49 |
| TTTTTCATTTTTAAAATAATTATAATATTATACATA [XGTACX_negctrl_site43] | 7.95 ± 0.54 |
| TAAATCAGCCATAACACACATACATATATACATAAA [CACACA_site396] | 7.87 ± 0.42 |
| TAAATATATATTATATGTACTTATATATATATATAT [XGTACX_site4448] | 8.9 ± 0.3 |
| AGCAAATAAATAAATAAATAAATAAATATATATATA [TGCATGCA_negctrl_site40] | 9.31 ± 0.3 |
| ATAATTAACAAATACACACACACACGCCCACAAAAA [CACACA_site6389] | 8.39 ± 0.085 |
| ATATATATGTGTAAAAGTACATATATTTTGAAATAT [XGTACX_site4024] | 7.78 ± 0.47 |
| TTTTAATAAAAGCCCATGCACACCTTAGAAAGTTTT [CACACA_site346] | 7.88 ± 0.59 |
| AAAAAAATCTATATTACACACATATATACCTATATA [CACACA_site7464] | 7.62 ± 0.51 |
| TACATTGTATACATATGTACACATATATATATATAT [XGTACX_site6174] | 9.31 ± 0.55 |
| TATTTATGTTATAATTGTACAATAAACAAATTTTTT [XGTACX_site5306] | 7.83 ± 0.32 |
| ATATTTTGTATAATCACACACACTATTCTTAAATAG [CACACA_site7270] | 7.79 ± 0.68 |
| AGAAATTAATCGAAGTGTACATATAAACATACATAT [XGTACX_site5518] | 7.88 ± 0.51 |
| ATTATACATTTTAGATGTACATATTTTAAATTTAAT [XGTACX_site5174] | 7.72 ± 0.54 |
| AACAAACAAACAAATATACACACTTTTGTATAAAGT [CACACA_site3509] | 7.66 ± 0.61 |
| AAATGGGCTTATTTATGTACTTAAATATATCTACCC [XGTACX_site3823] | 7.76 ± 0.47 |
| TAATCAATTCAATATTGTACGATATTTACCTTTAAA [XGTACX_site4678] | 7.88 ± 0.47 |
| CCCACATAAAAAAATAAACACACATATGTATATATA [CACACA_site9040] | 7.62 ± 0.67 |
| AACCTCGTGTAATATGCATGTTCCCTTCAAAGTTTT [TGCATGCA_site459] | 7.88 ± 1.1 |
